We go through 47 compounds from PubChem BioAssay AID1508624 (National Center for Advancing Translational Sciences (NCATS), 2021).

Screen size: about 48,000 compounds; about 120 (0.25%) were called active. About 4% were inconclusive and are not listed. Calls come from the whole dose curve; as a rule, active = well fitted activation curve with a large enough effect; inconclusive = small, poorly fitted or top-dose-only effect, or another doubt; inactive = no such curve, though single readings can be large or run the other way. The list shows a part of the results.

A short description of this experiment: Primary qHTS for Identification of Small Molecule Activators of Huntingtin-Antisense Promoter Activity. Note: nearly all actives have a fitted effect of over 55% in size. As to conditions: HEK293 HTT-AS promoter firefly luciferase reporter, 24 h; series mostly up to 57.5 µM; activity change, positive = activation: at the top concentration. The method, boiled down: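 Firefly luciferase readout (Dual-Glo, 10 min RT) after 24 h, 37 °C compound exposure (final up to 57.5 uM) of HEK293 reporter cells cultured 24 h beforehand; PTC124 at 50 uM final as control inhibitor; activity scaled vehicle 0%, zero RLU -100%.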
In the case of `COCCc1ccccn1`, the “activity change, positive = activation” value was inactive: -10.9%. Regarding `Cc1ccc(NC(=O)CSc2nc(=O)cc(N)n2-c2ccccc2)cc1`, the “activity change, positive = activation” value was inactive: -14.2%. For `Cc1ccc2nc(NC(=O)CSc3[nH]c(=O)ncc3C)sc2c1` the value was inactive: 26.8%; for `CCOC(=O)N1CCc2c(sc3c2C(=O)NC(c2ccc(N(C)C)cc2)N3)C1` (configuration not stated), inactive: -28.1%; for `CC[C@H]1OC(=O)[C@H](C)[C@@H](O[C@H]2C[C@@](C)(OC)[C@@H](O)[C@H](C)O2)[C@H](C)[C@@H](O[C@@H]2O[C@H](C)C[C@H](N(C)C)[C@H]2O)[C@](C)(O)C[C@H](C)C(=NOCOCCOC)[C@H](C)[C@@H](O)[C@]1(C)O`, inactive: -17.8%. The value for `CCCCOc1ccc(C2c3c(oc4ccc(C)cc4c3=O)C(=O)N2CCCN(C)C)cc1OCC` (configuration not stated) was inactive: 1.39%; that for `CNC[C@@H](O)[C@@H](O)[C@H](O)[C@H](O)CO` was inactive: 0.694%; that for `CC(=O)NCCNC(=O)CCCn1c(=O)[nH]c2ccsc2c1=O` was inactive: 4.37%. As for `CC(=O)Nc1ccc(/C=C/c2noc(-c3ccccc3O)n2)cc1`, the “activity change, positive = activation” value is inactive: 29.5%. The value for `CCOC(=O)CSc1nc(-c2ccc(OCC)cc2)cc(C(F)(F)F)c1C#N` was inactive: -7.52%; that for `CC(=O)c1ccc(N2CCN(S(=O)(=O)c3cc4[nH]c(=O)c(=O)[nH]c4cc3C)CC2)cc1` was inactive: 4.45%; that for `COc1ccccc1CNC(=O)C(=O)NCC(c1cccs1)S(=O)(=O)c1ccccc1` (configuration not stated) was inactive: -34.1%. For `CCc1nnc(NC(=O)c2cc(=O)c3cc(C)ccc3o2)s1` the value was inactive: 6.87% [at 11.5 µM, percent change from vehicle, -100% = no light]; for `CCN1C[C@H](C)n2c(c(O)c3c(=O)n(Cc4ccc(F)c(Cl)c4)nc(C(=O)NC)c32)C1=O`, inactive: 17.6%. The value for `Cc1ccc(C)c(N2CCN(C(=O)Cn3cnc4onc(-c5ccc(F)cc5)c4c3=O)CC2)c1` was inactive: -12.5%; that for `O=C(O)c1ccccc1S` was inactive: -5.62%. On to `Cc1ccc2oc(=O)c3cc(C(=O)NCCCOC(C)C)sc3c2c1`, for which the “activity change, positive = activation” value is inactive: 2.81%.

Take `COc1ccc(C(=O)c2oc3ccccc3c2NC(=O)c2cc(=O)c3ccc(C)cc3o2)cc1Cl`: the “activity change, positive = activation” value was inactive: -18%. For `Cc1ccc(S(=O)(=O)CC(=O)Nc2nc3c(C)cc(C)cc3s2)cc1` the value was inactive: -10.7%.

As to `Cc1cccc(C(=O)Nc2nnc(S(=O)(=O)N(C)Cc3ccccc3)s2)c1`, the “activity change, positive = activation” value was inactive: -16.8%. The value for `CCOc1ccc(-c2cccc(NS(=O)(=O)c3ccc(F)cc3F)c2)nn1` was inactive: -10.7%. On to `COc1ccc(-c2noc(CNC(=O)c3ccccc3Br)n2)cc1`, for which the “activity change, positive = activation” value is inactive: -22.2%. The value for `COc1cccc(NC(=O)c2cccc3c(=O)c4c([nH]c23)CCCC4)c1` was inactive: -36.6%; that for `CCCOc1ccc(C2c3c(-c4ccccc4O)n[nH]c3C(=O)N2CCc2ccccc2)cc1OCC` (configuration not stated) was inactive: -32.7%; that for `CCOc1ccc2ncc3c(-c4ccc(C)cc4)nn(-c4cccc(F)c4)c3c2c1` was inactive: -13.6%.

Take `CCOc1ccc(OCC)c(NC(=O)c2cc(S(=O)(=O)N3CCc4ccccc43)cn2C)c1`: the “activity change, positive = activation” value was inactive: -21.6%. The value for `CC(=O)c1c(C)c2cnc(Nc3ccc(N4CCNCC4)cn3)nc2n(C2CCCC2)c1=O` was inactive: -31.4%. For `COc1ccc(-c2nc3c(c(SCC(=O)N4CCCCC4)n2)Cc2cc(C)ccc2O3)cc1`, the “activity change, positive = activation” value was inactive: 4.33%. For `Cc1ccc(S(=O)(=O)NCC(c2ccco2)N2CCOCC2)cc1` (configuration not stated) the value was inactive: -12.1%; for `O=S(=O)(c1cccc(Cl)c1)c1nnn2c1nc(NCc1ccc3c(c1)OCO3)c1sccc12`, inactive: -37.5%. The value for `CCS(=O)(=O)N1CCCc2cc(C(=O)Nc3cccc(C(C)=O)c3)ccc21` was inactive: -29.7%.

With `COc1cc(NC(=O)c2cccc(Cl)c2Cl)ccc1NC(=O)c1cc2ccccc2o1`, the “activity change, positive = activation” value was inactive: -27.3%. As to `CCC(=O)N1CCc2cc(Br)cc(S(=O)(=O)CCC(=O)Nc3cccc(Cl)c3)c21`, the “activity change, positive = activation” value is inactive: 3.37%. The value for `CCCn1c2ccc(F)cc2c2nnc(SCCN3CCCCC3)nc21` was inactive: -20.8%; that for `CCCc1cnc2c(c1SCC(=O)Nc1ccccc1OCC)c(=O)n(C)c(=O)n2C` was inactive: -13.2%; that for `Clc1ccc(-c2nnn3c2nc(NC2CCCCC2)c2ccccc23)cc1` was inactive: -2.97%. The value for `CCOc1ccc(Nc2ncnc3c2c(-c2ccccc2)cn3-c2cccc(C)c2)cc1` was inactive: -10.9%. The value for `CCOc1ccc(C(=O)N(Cc2ccc(C(C)C)cc2)Cc2ccco2)cc1` was inactive: -17.4%; that for `Cc1cc2c(cc1NS(=O)(=O)c1ccc(Br)cc1)n(C)c(=O)c(=O)n2C` was inactive: -33.9%; that for `CCCSCCCNC(=O)c1ccc(C)c(NC(=O)c2nsc3ccccc23)c1` was inactive: -14.6%. As for `COc1cccc(Cn2nc(SC)c(S(=O)(=O)c3ccccc3)c2N(C(C)=O)C(C)=O)c1`, the “activity change, positive = activation” value is inactive: -29.1%.

`Cc1cccc(C)c1NC(=O)CN1CCCC1`: the “activity change, positive = activation” value was inactive: -3.99%. The value for `COc1ccc(-n2c(SCC(=O)NCc3ccc(Cl)cc3)nc3ccsc3c2=O)cc1` was inactive: -26%; that for `COc1nccnc1NS(=O)(=O)c1ccc(N)cc1` was inactive: -3.04%; that for `Cc1ccc(NC(=O)CCCc2nc(-c3ccco3)no2)cc1Cl` was inactive: -7.47%. The value for `COc1ccc(-n2nnnc2C2CCN(S(=O)(=O)c3cccc(C(F)(F)F)c3)CC2)cc1` was inactive: -14.4%. As for `COc1cccc(NC(=O)C(Cc2ccccc2)N2Cc3ccccc3C2=O)c1` (configuration not stated), the “activity change, positive = activation” value is inactive: 0.244%.
